From publication PMC4336329 (PLoS ONE, 2015) come the findings set out here.

Screen size: about 310,000 compounds; about 2,200 (0.71%) showed an effect of 50% or more. Effects have a minus sign here. This is one part of the list.

Sequence of human ether-à-go-go-related gene (hERG) potassium channel (Q12809 whole entry, looked up): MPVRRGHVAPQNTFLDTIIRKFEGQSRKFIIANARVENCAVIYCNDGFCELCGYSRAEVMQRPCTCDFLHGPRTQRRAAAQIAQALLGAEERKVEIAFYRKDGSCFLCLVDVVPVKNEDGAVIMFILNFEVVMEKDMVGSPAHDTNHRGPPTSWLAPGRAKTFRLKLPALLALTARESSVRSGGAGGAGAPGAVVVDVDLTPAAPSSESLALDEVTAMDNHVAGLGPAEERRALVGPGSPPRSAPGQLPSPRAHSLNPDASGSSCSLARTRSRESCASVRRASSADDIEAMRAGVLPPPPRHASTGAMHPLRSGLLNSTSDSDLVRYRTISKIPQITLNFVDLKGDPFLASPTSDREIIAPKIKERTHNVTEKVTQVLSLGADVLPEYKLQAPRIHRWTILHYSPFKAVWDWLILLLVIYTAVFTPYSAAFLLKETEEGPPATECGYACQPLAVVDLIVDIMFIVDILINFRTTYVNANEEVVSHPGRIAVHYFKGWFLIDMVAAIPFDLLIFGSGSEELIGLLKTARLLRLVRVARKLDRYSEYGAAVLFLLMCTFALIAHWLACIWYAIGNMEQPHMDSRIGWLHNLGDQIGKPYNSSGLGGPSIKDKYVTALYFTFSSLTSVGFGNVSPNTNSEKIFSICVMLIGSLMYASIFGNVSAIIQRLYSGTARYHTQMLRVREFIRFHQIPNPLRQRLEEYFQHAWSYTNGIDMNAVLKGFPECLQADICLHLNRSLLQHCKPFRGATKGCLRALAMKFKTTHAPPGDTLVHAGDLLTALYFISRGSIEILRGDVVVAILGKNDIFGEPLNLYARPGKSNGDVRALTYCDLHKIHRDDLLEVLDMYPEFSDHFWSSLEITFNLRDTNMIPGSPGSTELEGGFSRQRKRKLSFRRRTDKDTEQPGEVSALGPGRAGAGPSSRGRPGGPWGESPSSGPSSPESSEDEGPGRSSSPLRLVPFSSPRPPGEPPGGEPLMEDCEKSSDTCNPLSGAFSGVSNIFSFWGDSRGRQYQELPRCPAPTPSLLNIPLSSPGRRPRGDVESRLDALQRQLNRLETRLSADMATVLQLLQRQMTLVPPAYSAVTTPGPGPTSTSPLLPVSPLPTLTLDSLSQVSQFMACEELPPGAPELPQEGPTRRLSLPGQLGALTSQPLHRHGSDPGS

This assay addresses human ether-à-go-go-related gene (hERG) potassium channel (human, UniProt Q12809). The experiment in a line: primary screen, population patch clamp on CHO cells stably expressing hERG.
With `O=C(CN1CCCCCC1)Nc1ccc([N+](=O)[O-])cc1Br`, the “hERG current change (%, negative = inhibition) at 1uM” value is 10.1%.
Then `COC(=O)c1c(NC(=O)c2nn(C)cc2Cl)sc2c1CCCC2`, with 19.3%; and `Cc1cccc(C(=O)NN2S(=O)(=O)c3ccccc3S2(=O)=O)c1`, with 16.2%; and `COc1cc(C(=O)Nc2ccc(S(=O)(=O)Nc3cc(C)nc(C)n3)cc2)cc(OC)c1OC`, with 8.09%.
Then `Cc1ccc(Nc2c([N+](=O)[O-])ccc3nonc23)c(C)c1`, with 14.6%; and `CCOC(=O)C1=C(N2CCCCC2)c2cc3c(n2C1=O)CCCC3`, with 0.903%.
Then `Cc1cc(C)cc(C(=O)Nc2cccc(NC(=O)c3ccco3)c2)c1`, with 10.4%.
Turning to `CCOC(=O)C1=C(C)N(C)C(=O)NC1c1c(OC)ccc2ccccc12` (centres unmarked), the “hERG current change (%, negative = inhibition) at 1uM” value was 13.6%.
Then `CCOC(=O)c1nnn(-c2nonc2N)c1CSc1ccccc1`, with -3.14%; and `COc1ccc(CN(C)C(=O)c2ccc(Cl)c(S(=O)(=O)NCc3cccnc3)c2)cc1F`, with -2.73%.
With `COc1ccccc1NS(=O)(=O)c1ccc(C)c(C(=O)NCCCN2CCCC2=O)c1`, the “hERG current change (%, negative = inhibition) at 1uM” value amounted to 13.2%.
The same measure for `Cn1cnc(S(=O)(=O)NC2CCN(Cc3ccccc3)CC2)c1`: 18%; for `CC(O)CN(C)CC/C=C1/c2ccccc2CSc2ccccc21.Cl` (centres unmarked): 1.02%.
The same measure for `Cc1cc(C)nc(NC(=O)c2ccc(Cl)cc2[N+](=O)[O-])c1`: 1.78%.
On to `O=S1(=O)C=CC(c2ccccc2)C1` (centres unmarked), for which the “hERG current change (%, negative = inhibition) at 1uM” value amounted to 9.87%.
Then `CCCCCN(C(=O)CCC(=O)OCC(=O)NCc1ccc(OC)cc1)c1c(N)n(CCCC)c(=O)[nH]c1=O`, with 3.41%; and `O=c1[nH]c(CN2CCN(S(=O)(=O)c3ccc4c(c3)OCCO4)CC2)nc2sc3c(c12)CCCC3`, with 9.24%.
Then `CCCCN(CC)CCNC(=O)c1cc2c(=O)n(C)c3ccccc3c2n1C`, with -1.56%; and `CC(C)n1nc(C(=O)Oc2ccc(Cl)cc2)c2ccccc2c1=O`, with 9.03%; and `Cc1cc(=O)[nH]c(-c2cccnc2)n1`, with 17.4%.
The same measure for `COc1ccc(Br)cc1CN(C)CC(=O)Nc1cc(Cl)ccc1Cl`: 13.8%; for `Cc1ccccc1-n1nnc2c(=O)oc3ccccc3c21`: 11.7%; for `COc1cc(C(=O)OC2CCN(C)CC2)cc(OC)c1OC.Cl`: 4.07%.
Take `Cc1ccc(-c2nnc(N3CCN(CCO)CC3)c3ccccc23)cc1`: the “hERG current change (%, negative = inhibition) at 1uM” value is -13.2%.
Turning to `O=C(c1ccccc1F)N1CCN(S(=O)(=O)c2ccc(S(=O)(=O)N3CCCCCC3)cc2)CC1`, the “hERG current change (%, negative = inhibition) at 1uM” value is reported as 3.69%.
Then `N#Cc1nc(-c2cccs2)oc1NCCCN1CCOCC1`, with 10.3%.
The same measure for `CC1=CC(=C2N=C(c3ccccc3)OC2=O)C=C(C)O1`: -15.1%.
Then `Cc1ccc(Nc2nc3ccccc3c(=O)s2)cc1`, with 5.77%; and `COc1cc(NC(=S)N2c3ccccc3CC2C)cc(OC)c1` (centres unmarked), with 14.3%; and `Cc1onc(-c2c(F)cccc2Cl)c1C(=O)NC(C)c1ccccc1` (centres unmarked), with 13.1%.
Regarding `CN1CCN(CC(=O)NN(Cc2ccccc2)c2ccccc2)CC1.O=C(O)C(=O)O`, the “hERG current change (%, negative = inhibition) at 1uM” value worked out at 2.11%.
As to `C/C(=N\NC(=O)c1cc(C)nc2ccccc12)c1ccco1`, the “hERG current change (%, negative = inhibition) at 1uM” value is on record as 6.1%.
Regarding `Cc1cc(C)n(CCN(C)Cc2nc(Cc3ccccc3F)no2)n1`, the “hERG current change (%, negative = inhibition) at 1uM” value is on record as -3.25%.
The same measure for `CCCCCCN(C(=O)CCCCCN1C(=O)NC(c2ccc(-c3ccccc3)cc2)C(C(=O)OCc2ccccc2)=C1C)C(C(=O)NCCCC)c1ccc(OCC(=O)OC)c(C(=O)OC)c1` (centres unmarked): 22.4%.
`CCCC[N+]12CCC(CC1)C(C(=O)c1cccs1)C2.[Br-]` (centres unmarked): the “hERG current change (%, negative = inhibition) at 1uM” value was 6.15%.
Then `O=S(=O)(NCCc1csc(-c2ccc(C(F)(F)F)cc2)n1)c1ccc2c(c1)OCCO2`, with 6.04%; and `Cc1ccc(C)c(NC(=O)c2cc(S(=O)(=O)N3CCOCC3)cn2C)c1`, with 6.73%; and `COc1ccccc1N1CC(C)(C)C(=O)N(C(=O)c2ccc(Cl)cc2)C1=S`, with 8.3%.
The same measure for `CCOc1ccc(N(CC(=O)NCc2ccc(Cl)cc2)S(=O)(=O)c2ccccc2)cc1`: 13.8%.
The same measure for `CCS(=O)(=O)Nc1ccc2[nH]c(=O)[nH]c2c1`: 16.7%; for `CCC(C(=O)O)N1C(=O)C2CCCCC2C1=O` (centres unmarked): 5.66%.
For `Fc1c(CSC(=S)N2CCOCC2)cccc1CSC(=S)N1CCOCC1`, the “hERG current change (%, negative = inhibition) at 1uM” value is given as 13.1%.
Then `O=C(Cn1nc(C(=O)O)c2ccccc2c1=O)c1cc(F)ccc1F`, with 16%; and `O=C(CNC(=O)c1ccccc1Cl)N/N=C/c1ccc2c(c1)OCO2`, with 18.7%.
The same measure for `Cc1cc(N2CCCCC2)c(F)cc1[N+](=O)[O-]`: -5.81%.
The same measure for `Cc1ccc(S(=O)(=O)N2CCC(N3CCC(C)CC3)CC2)cc1`: 4.46%.
For the compound `Cc1ccccc1C(=O)N1CCC(n2nccc2NC(=O)C2CC2)CC1`, the “hERG current change (%, negative = inhibition) at 1uM” value turned out to be 8.89%.
Then `Cc1ccc(NC(=O)CCc2nc3sc4c(c3c(=O)[nH]2)CCCC4)nc1`, with 6.4%.
Then `Cc1ccc(C)c(NC(=S)c2ccc3ccccc3n2)c1`, with 4.52%; and `COc1ccc2oc(C(=O)OCC(=O)N3C(C)CCCC3C)c(C)c2c1` (centres unmarked), with 11.3%.
The same measure for `O=C(NC1CCCCC1)c1cc(Cl)ccc1[N+](=O)[O-]`: 6.88%; for `Cc1nc([N+](=O)[O-])c(Br)n1CC(=O)c1ccccc1`: -1.42%; for `COc1ccc(C(=O)C2CCN(C(=S)NCC3CCCO3)CC2)cc1` (centres unmarked): 6.96%.
`COc1ccc(S(=O)(=O)N2CCN(C(=O)c3cc(-c4ccccc4OC)n[nH]3)CC2)cc1`: the “hERG current change (%, negative = inhibition) at 1uM” value is reported as 7.47%.
The same measure for `O=C1CCNc2c(Cl)cccc21`: 13.4%; for `Cc1cc(C)cc(NC(=O)CSc2nc3ccncc3[nH]2)c1`: 7.44%.
